Here are results for 93 compounds from PubChem BioAssay AID360 (National Center for Advancing Translational Sciences (NCATS), 2006).

Among all 48,000 compounds or so, about 550 (1.1%) were called active. Another 4% or so got no clear call; they are omitted. Cut-off read from the data, not from the text of the source: active = potency below about 15 µM; inconclusive = mostly about 16 µM to 33 µM; inactive = weaker than that. Some of the results follow. Bounds are passed on as bounds.
Potency is the fitted concentration of half-maximal effect.

UniProt P04062, sequence (P04062 whole entry, looked up): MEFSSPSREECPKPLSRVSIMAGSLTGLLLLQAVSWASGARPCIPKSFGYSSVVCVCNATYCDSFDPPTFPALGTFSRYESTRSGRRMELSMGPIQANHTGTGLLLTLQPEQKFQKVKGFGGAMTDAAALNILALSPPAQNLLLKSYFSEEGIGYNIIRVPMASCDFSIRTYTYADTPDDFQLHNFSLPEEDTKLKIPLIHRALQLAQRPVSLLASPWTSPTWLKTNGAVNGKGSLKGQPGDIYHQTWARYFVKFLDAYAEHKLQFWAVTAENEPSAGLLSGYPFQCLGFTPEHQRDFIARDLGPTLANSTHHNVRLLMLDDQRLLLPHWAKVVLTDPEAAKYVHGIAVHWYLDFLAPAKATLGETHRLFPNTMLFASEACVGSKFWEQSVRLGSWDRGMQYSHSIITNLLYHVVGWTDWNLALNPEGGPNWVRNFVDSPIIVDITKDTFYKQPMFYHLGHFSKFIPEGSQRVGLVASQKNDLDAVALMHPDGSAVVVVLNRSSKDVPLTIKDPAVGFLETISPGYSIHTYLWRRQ

The target of the experiment is Lysosomal acid glucosylceramidase (Homo sapiens) (UniProt P04062). Description: Glucocerebrosidase.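 Note: the screen sought inhibitors.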 The following applies: purified enzyme, resorufin glucoside fluorescence (screen aimed at inhibitors), 20 min. In a few lines:
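Compounds titrated against 0.2 nM normal enzyme, 30 uM resorufin beta-D-glucopyranoside substrate, citrate/phosphate buffer with taurocholate and tween-20, pH 5.9. Reaction ran 20 min at room temperature; fluorescence (Ex 548/Em 600) gave AC50.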
`COc1ccc(Br)cc1CNC(=O)C1CCN(S(=O)(=O)N2CCCCC2)CC1`: the Potency was inactive: > 76.9 µM. On to `Cc1nn2c3ccccc3nc2n(Cc2ccccc2)c1=O`, for which the Potency is inactive: > 76.9 µM. For the compound `CCc1nnc(NC(=O)c2nc3nccc(C)n3n2)s1`, the Potency was inactive: > 76.9 µM.

For `O=C(NCCN1CCOCC1)c1csc2c1CCCCC2`, the Potency entry is “inactive”. `Cc1nnc(SCC(=O)NCc2ccc3c(c2)OCO3)[nH]c1=O`: the Potency was inactive: > 76.9 µM.

For the compound `Cn1c(N)c(C(=O)COC(=O)CCC(=O)c2cccs2)c(=O)n(C)c1=O`, the Potency was inactive: > 76.9 µM. Consider `NC(Cc1cccc2nsnc12)C(=O)O` (stereo not drawn), for which the Potency was inactive: > 76.9 µM.

For `COc1ccc2nc(C)cc(N3CC(C)OC(C)C3)c2c1` (stereo not drawn), the Potency was inactive: > 76.9 µM. In the case of `CCCCN(C)C(=O)C1CCC(=O)N(c2cc(OC)c(OC)c(OC)c2)C1c1ccc(OC)cc1` (stereo not drawn), the Potency is inactive: > 76.9 µM. Turning to `CCOc1cc(C#N)c(NC(=O)c2ccco2)cc1OCC`, the Potency was inactive: > 76.9 µM.

As for `COc1ccc(C(=O)N(Cc2nc(-c3ccc(C)cc3)no2)C2CCCCC2)cc1OC`, the Potency was inactive: > 76.9 µM. `COc1ccc(C)cc1NC(=O)c1ccc(N(C)S(C)(=O)=O)cc1`: the Potency is inactive: > 76.9 µM.

On to `CC(=O)C1C(c2cccc(F)c2)NC(=O)NC1(O)C(F)(F)F` (stereo not drawn), for which the Potency was inactive: > 76.9 µM. As for `CCOC(=O)c1sc(NC(=O)c2ccc(CC)s2)nc1C`, the Potency was inactive: > 76.9 µM. `CCC(CC)C(=O)NCCNC(=O)C(CC)CC`: the Potency was inactive: > 76.9 µM. Consider `COc1ccccc1NC(=O)CSc1nnc(-c2ccncc2)n1CC1CCCO1` (stereo not drawn), for which the Potency is inactive: > 76.9 µM. Turning to `COC(=O)c1ccccc1NC(=O)COc1ccc(S(=O)(=O)N2CCCC2)cc1C`, the Potency was inactive: > 76.9 µM. On to `Cc1ccc(S(=O)(=O)C2(C(=O)N3CCCC(C)C3)CC2)cc1` (stereo not drawn), for which the Potency is inactive: > 76.9 µM. For `COc1ccc(Cl)cc1-c1nc(-c2ccncc2)no1`, the Potency is inactive: > 76.9 µM. As for `CCCCCn1c(CN2CCN(C(=O)OCC)CC2)nc2c1c(=O)[nH]c(=O)n2C`, the figure is inactive: > 76.9 µM; as for `Cc1nnc(SCc2ccc(CC(=O)O)cc2)o1`, inactive: > 76.9 µM; as for `O=C1CCN(Cc2nnnn2CC2CCCO2)c2ccccc2N1` (stereo not drawn), inactive: > 76.9 µM. Turning to `Cc1ccc(Cl)cc1N1CCN(C(=O)c2cn(C)c(=O)c3c2c2ccccc2n3C)CC1`, the Potency is inactive: > 76.9 µM. As for `O=C(Cn1c(NCCCO)nc2ccccc21)c1ccc(Br)cc1`, the figure is inactive: > 76.9 µM. For `CCOc1nc(C)ccc1-c1noc(-c2ccncc2)n1` the value was inactive: > 76.9 µM; for `Cn1c(CN2CCCC2)nc2cc(NC(=O)c3ccco3)ccc21`, inactive: > 76.9 µM. With `COc1ccc(N2CCn3c2nc2c3c(=O)n(CCN3CCOCC3)c(=O)n2C)cc1`, the Potency is inactive: > 76.9 µM. With `CCOC(=O)N1CCN(C(=O)CCSc2ccc(C)cc2)CC1`, the Potency is inactive: > 76.9 µM. As for `CC(=O)Nc1ccc(S(=O)(=O)Nc2nc3ccccc3nc2Sc2nncn2C)cc1`, the Potency was inactive: > 76.9 µM. For `O=C(CN1CCN(Cc2ccccc2)CC1)N1CCCc2c1c(=O)oc1ccc(O)cc21` the value was active: 14.2 µM; for `Fc1cccc(Cl)c1CSc1nnc(COc2cccc3cccnc23)o1`, inactive: > 76.9 µM; for `Brc1c(CSc2nc3ccccc3o2)nc2ncccn12`, inactive: > 76.9 µM. For `CCOc1ccc(NS(=O)(=O)c2ccc(SC)cc2)cc1` the value was “inactive”; for `Cc1ccccc1C(=O)Nc1c(C(=O)N2CCCC2)cnn1-c1ccccc1`, inactive: > 76.9 µM. As to `O=C(NCc1nnc(SCC(=O)N2CCCC2)o1)c1c(F)cccc1Cl`, the Potency is inactive: > 76.9 µM.

For `COc1ccc(-c2nn(C)c(=O)c3ccccc23)cc1NC(=O)Cn1nc(C)c2ccccc2c1=O`, the Potency was inactive: > 76.9 µM. As to `Cc1ccc(C(=O)NC2CCCCCC2)cc1N1CCCC1=O`, the Potency is inactive: > 76.9 µM. `CC(C)(C)OC(=O)N1CCC(c2c(C(=O)O)cnn2-c2ccccc2)CC1`: the Potency is inactive: > 76.9 µM. As for `CCOCc1nc(C)c(Cl)c(NS(=O)(=O)c2ccc(N)cc2)n1`, the figure is inactive: > 76.9 µM; as for `CCOCCn1c(CCCO)nc2ccccc21`, inactive: > 76.9 µM.

With `Cc1oc(-c2ccccc2F)nc1CS(=O)(=O)CC(=O)NCCCN(C)C1CCCCC1`, the Potency was inactive: > 76.9 µM. On to `Cn1ccnc1C(O)(c1nnc(-c2ccccc2)o1)C(F)(F)F` (stereo not drawn), for which the Potency is inactive: > 76.9 µM. For `CCCC(c1nnnn1Cc1ccc(OC)cc1)N1CCC(C(N)=O)CC1` (stereo not drawn), the Potency is inactive: > 76.9 µM. Take `COCC(=O)NC(C)c1nc2ccccc2[nH]1` (stereo not drawn): the Potency was inactive: > 76.9 µM. Turning to `COc1ccc(N2CCN(/C(=N\S(=O)(=O)c3ccccc3)Nc3nc(C)cc(C)n3)CC2)cc1`, the Potency is inactive: > 76.9 µM. Take `O=C(c1ncc[nH]1)c1ccco1`: the Potency was inactive: > 76.9 µM. As to `COc1ccc(C2CC(c3ccccc3)n3nc(NC(=O)c4cccs4)nc3N2)cc1` (stereo not drawn), the Potency is inactive: > 76.9 µM. As for `CCOC(=O)c1cc(C)sc1N1C(=O)C2C3C=CC(C3)C2C1=O` (stereo not drawn), the figure is inactive: > 76.9 µM. Regarding `CCC(=O)c1ccc(OCC(O)CN2CC(C)OC(C)C2)cc1` (stereo not drawn), the Potency is inactive: > 76.9 µM. On to `O=C(Nc1ccccc1)c1ccc(NCC2CCCO2)c(S(=O)(=O)N2CCOCC2)c1` (stereo not drawn), for which the Potency was inactive: > 76.9 µM.

Take `CS(=O)(=O)N1Cc2ccccc2CC1C(=O)Nc1ccccc1C(N)=O` (stereo not drawn): the Potency was inactive: > 76.9 µM. `CCOc1cccc2cc(C(=O)Nc3cc(C)on3)c(=O)oc12`: the Potency is inactive: > 76.9 µM.

On to `N#Cc1c(-c2ccccc2)nc(SCc2nc(N)nc(N3CCCCC3)n2)[nH]c1=O`, for which the Potency is inactive: > 76.9 µM. As to `CN1Cc2sc(N)c(C#N)c2CC1(C)C`, the Potency is inactive: > 76.9 µM. For `CCCS(=O)(=O)NCCc1cc2ccc(C)cc2[nH]c1=O`, the Potency was inactive: > 76.9 µM. Consider `COc1ccc(CCCC(=O)O)c(C)c1`, for which the Potency was inactive: > 76.9 µM. In the case of `COc1ccc(CN2CCCCCC2)c(C)c1C`, the Potency was inactive: > 76.9 µM. As to `COc1ccc(Cc2noc(-c3ccc(OC)c(OC)c3)n2)cc1OC`, the Potency was inactive: > 76.9 µM. Regarding `CCc1ccc2oc(-c3cc(N)ccc3Cl)nc2c1`, the Potency was inactive: > 76.9 µM. For `COc1ccc(OC)c(S(=O)(=O)NCCc2ccccc2)c1` the value was inactive: > 76.9 µM; for `COc1ccccc1-c1cn[nH]c(=S)n1`, inactive: > 76.9 µM; for `C=CCN(C(=O)CNC(=O)c1ccco1)C(C(=O)NC1CCCCC1)c1ccc(OC)cc1OC` (stereo not drawn), inactive: > 76.9 µM. For the compound `O=S(=O)(NCc1cccnc1)c1ccc(Br)s1`, the Potency is inactive: > 76.9 µM. With `CC(=O)Nc1ccc(S(=O)(=O)N2CCSC2c2ccc(Cl)cc2)cc1` (stereo not drawn), the Potency entry is “inactive”. On to `C=CCn1c(SCC(=O)NCCOC)nc2scc(-c3ccco3)c2c1=O`, for which the Potency is inactive: > 76.9 µM.

In the case of `Cc1cc(C)c2c3c(sc2n1)C(=O)N(C)CC(=O)N3`, the Potency is inactive: > 76.9 µM.

For the compound `O=C(CN(Cc1ccccc1)C(=O)c1ccc2c(c1)OCCO2)NCc1ccc2c(c1)OCO2`, the Potency is inactive: > 76.9 µM. For `Cc1ccc(-c2nc(Nc3ccccc3)n[nH]2)cc1` the value was inactive: > 76.9 µM; for `COc1cc(CO)cc(Br)c1OCc1cccnc1`, inactive: > 76.9 µM. With `Cc1cc(C)cc(OCC(=O)Nc2ccccc2C(=O)NCc2ccco2)c1`, the Potency is inactive: > 76.9 µM. For the compound `COc1ccccc1OCCCn1c(=O)oc2ccccc21`, the Potency is inactive: > 76.9 µM.

`Cc1ccc(-c2noc(CCC(=O)Nc3ccccc3C)n2)cc1`: the Potency is inactive: > 76.9 µM. For `Cc1cc(N2CCN(C(=O)c3ccco3)CC2)n2ncc(-c3ccccc3)c2n1`, the Potency entry was “inactive”.

With `CN(C(=O)C1CCCO1)c1nnc(-c2cnccn2)s1` (stereo not drawn), the Potency was inactive: > 76.9 µM.

For `CC(C)c1ccc(NC(=O)C(c2ccc3c(c2)OCO3)N2CCC3(CC2)OCCO3)cc1` (stereo not drawn), the Potency result was “inactive”.

With `CN(Cc1ccccc1)c1oc(-c2ccco2)nc1C#N`, the Potency is inactive: > 76.9 µM. Consider `c1ccc(C2C3=C(CCCC3)Nc3ncnn32)cc1` (stereo not drawn), for which the Potency was inactive: > 76.9 µM.

Turning to `CC1CC(C)CN(c2nc3c(c(=O)n(C)c(=O)n3C)n2C)C1` (stereo not drawn), the Potency was inactive: > 76.9 µM. In the case of `Cc1ccc(NC(=O)CNc2cccc(C)c2C)c(C)c1`, the Potency was inactive: > 76.9 µM. On to `CCN(CC)c1nc2ccccc2nc1C(C#N)C(=O)NCCCOC` (stereo not drawn), for which the Potency is inactive: > 76.9 µM.

As to `CCCCc1nccn1CCn1ccnc1CCCC`, the Potency was inactive: > 76.9 µM. For the compound `Cc1nc2c(C(=O)NCc3ccco3)cnn2c(C)c1Cc1ccc(F)cc1Cl`, the Potency is inactive: > 76.9 µM. Consider `c1ccc(-n2ncc3c(N4CCN(c5ccccn5)CC4)nc(N4CCCCCC4)nc32)cc1`, for which the Potency is inactive: > 76.9 µM. Turning to `Cc1cccc(Cc2c(C)nc3c(C(=O)NCc4ccco4)cnn3c2C)c1`, the Potency result is “inactive”.

As for `COc1cc(NS(=O)(=O)c2ccc(F)cc2)c(OC)cc1NC(=O)C1CC1`, the Potency is inactive: > 76.9 µM. Consider `CCOC(=O)C1=C(N)N(c2ccccc2Oc2ccccc2)C(=O)C1`, for which the Potency was inactive: > 76.9 µM. For `O=C(O)c1cccn1Cc1ccccc1F` the value was inactive: > 76.9 µM; for `COC(=O)[C@H](Cc1ccccc1)NC(=O)N1CC(C)OC(C)C1` (stereo partly drawn), inactive: > 76.9 µM. Consider `CC1CN(C(=O)CCn2c(=O)oc3ccccc32)CC(C)O1` (stereo not drawn), for which the Potency is inactive: > 76.9 µM. In the case of `N#Cc1cc2c(=O)n3ccccc3nc2n(Cc2cccnc2)c1=N`, the Potency is inactive: > 76.9 µM.

For `Cn1nnnc1SCCNC/C=C/c1ccccc1`, the Potency is inactive: > 76.9 µM. Take `O=C(COC(=O)C12CC3CC(CC(O)(C3)C1)C2)Nc1ccccc1OC(F)F`: the Potency is inactive: > 76.9 µM.

On to `COc1ccc(CCNc2nnc(Sc3nnnn3-c3ccccc3)s2)cc1OC`, for which the Potency was inactive: > 76.9 µM.
